Measured values reported in PubChem BioAssay AID686978 (National Center for Advancing Translational Sciences (NCATS), 2013).
The whole screen tested about 420,000 compounds, of which about 64,000 (15%) were called active. The shares of active, inactive and inconclusive entries below differ from those in the screen. The call rests on the fitted dose curve; in most records, active means well fitted inhibition curve with a large enough effect; inconclusive means small, poorly fitted or top-dose-only effect; inactive means flat fitted curve, though single readings scatter. Potencies of inconclusive entries are left out as doubtful fits.

Test: qHTS for Inhibitors of human tyrosyl-DNA phosphodiesterase 1 (TDP1): qHTS in cells in absence of CPT; further: nearly all actives have a fitted effect of over 55% in size
Details: DT40 Tdp1-/- hTDP1 cells, no CPT, ATP luminescence, 48 h; activity change, negative = growth inhibition: at 46.2 µM (top of the series)
Summary of the method: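 Growth of hTDP1-complemented DT40 Tdp1-knockout cells is measured by ATP luminescence after at least 48 hr compound exposure at 37 °C, with DMSO substituting for the 20 nM CPT used in the parallel screen.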
On the % scale 0 is the no-effect control and ±100 the full control effect; potency means the concentration at half of the fitted maximal effect; tags describe the fitted curve by direction and shape.

Q: For COc1ccc(-n2nc3c(c2NC(=O)C(=O)NCc2ccccc2)CSC3)cc1, which Potency is on record?
A: The Potency was inconclusive [inhibitor, single point].

Q: With CCOc1ccc(N=Cc2ccccc2O)cc1 as the compound, how does the “activity change, negative = growth inhibition” value read?
A: The value was inactive: -31.4%.

Q: For Cc1ccc(Cc2cnc(N3C(=N)SC(c4ccccc4)C3=O)s2)cc1 (stereo unspecified), which Potency is on record?
A: Its Potency is active: 16.4 µM.

Q: For CCc1ccc2c(CN(C)Cc3ccc(OC(F)F)c(OC)c3)cc(=O)oc2c1, which Potency is on record?
A: The Potency was inconclusive [inhibitor, single point].

Q: Which Potency does the source give for Cc1cc(C)c2c(=O)n3c(nc2c1)C(Cc1ccc(O)cc1)NC(=O)c1cc2ccccc2cc1-3 (stereo unspecified) here?
A: The Potency was active: 18.4 µM.

Q: For CN(C)N1C(N)=C(C#N)C(c2ccc3c(c2)OCO3)C2=C1CC(C)(C)CC2=O (stereo unspecified), which “activity change, negative = growth inhibition” value is on record?
A: Its value is inactive: 7.54%.

Q: Which Potency does the source give for Cc1ccccc1-c1cnc2c(c1)C(=O)N([C@@H](C)CO)C[C@@H](C)[C@H](CN(C)Cc1ccccc1F)O2 here?
A: Its Potency is active: 16.4 µM.

Q: For COc1ccc(C=C2SC(=S)NC2=O)c(OC)c1OC, which Potency is on record?
A: The Potency was inconclusive [inhibitor, single point].

Q: Which Potency does the source give for Cc1ccc(-n2nnnc2-c2cnc(N3CCCC3)nc2C(F)(F)F)cc1 here?
A: The Potency was active: 11.6 µM.

Q: With Cc1ccc(Cn2c3ccccc3c3cnn(CC(=O)N4CCCCCC4)c(=O)c32)cc1 as the compound, how does the Potency read?
A: Its Potency is inconclusive [inhibitor, partial curve].

Q: Which Potency does the source give for COCCN1Cc2cccc(C(=O)N3CCN(c4cc(C)ccc4C)CC3)c2C1=O here?
A: The Potency was inconclusive [inhibitor, partial curve].

Q: For CCOc1cc2[nH]c(=O)n(CCC(=O)N3CCN(c4ccccc4OC)CC3)c(=O)c2cc1OCC, which activity change, negative = growth inhibition is on record?
A: The activity change, negative = growth inhibition was inconclusive: -32% [inhibitor].

Q: With O=C(NC1CCCCC1)C(c1ccccc1)N(C(=O)c1csnn1)C1CCCC1 (stereo unspecified) as the compound, how does the Potency read?
A: Its Potency is inconclusive [inhibitor, single point].

Q: With FC(F)(F)c1ccnc(N2CCN(Cc3cnc(-c4ccccc4)[nH]3)CC2)c1 as the compound, how does the Potency read?
A: The Potency was inconclusive [inhibitor, single point].

Q: With O=C(/C=C/c1ccc(F)cc1)Nc1ccc(S(=O)(=O)Nc2ncccn2)cc1 as the compound, how does the Potency read?
A: The Potency was inconclusive [inhibitor, partial curve].

Q: With CC(C)C#Cc1cnc2c(c1)C(=O)N([C@H](C)CO)C[C@@H](C)[C@H](CN(C)C(=O)Nc1ccccc1F)O2 as the compound, how does the Potency read?
A: The Potency was inconclusive [inhibitor, single point].

Q: With Cc1ccccc1-c1ccc2ncnc(NCCN3CCOCC3)c2c1 as the compound, how does the Potency read?
A: Its Potency is active: 7.31 µM.

Q: With CCCCNC(=O)c1nc(C2CCN(S(=O)(=O)c3c(OC)cccc3OC)CC2)oc1-c1ccccc1 as the compound, how does the Potency read?
A: Its Potency is active: 9.2 µM.

Q: Which Potency does the source give for COc1ccc(S(=O)(=O)N(CCCN2CCOCC2)Cc2cccc3ccccc23)cc1 here?
A: The Potency was inconclusive [inhibitor, single point].

Q: For Cc1ccc(S(=O)(=O)n2nc(C)c(Br)c2C)c(C)c1C, which Potency is on record?
A: The Potency was active: 20.6 µM.

Q: Which activity change, negative = growth inhibition does the source give for O=C(Nc1ccc2c(c1)OCCO2)c1ccc(Br)o1 here?
A: The activity change, negative = growth inhibition was inconclusive: -30.6% [inhibitor].

Q: Which “activity change, negative = growth inhibition” value does the source give for CCC1(c2ccccc2)CN(C)C1=O (stereo unspecified) here?
A: The value was inactive: -12.9%.

Q: With O=C1CN(c2nc(-c3ccccc3)c3cc(Cl)ccc3n2)c2ccccc2N1 as the compound, how does the Potency read?
A: The Potency was active: 20.6 µM.

Q: With CC(C)(CO)NS(=O)(=O)c1ccc2c(c1)C(=NO)c1cc(S(=O)(=O)NC(C)(C)CO)ccc1-2 as the compound, how does the “activity change, negative = growth inhibition” value read?
A: The value was inactive: -0.209%.

Q: Which Potency does the source give for Clc1ccc(SCc2cc(N3CCOCC3)nc(-c3ccccn3)n2)cc1 here?
A: Its Potency is active: 3.26 µM.

Q: For COc1cc(C(C)=O)ccc1Oc1ncccn1, which “activity change, negative = growth inhibition” value is on record?
A: The value was inactive: 0.546%.

Q: Which Potency does the source give for Cc1c(NC(=O)C(C)OC(=O)c2c3c(nc4ccccc24)CCC(C)C3)c(=O)n(-c2ccccc2)n1C (stereo unspecified) here?
A: The Potency was inconclusive [inhibitor, single point].

Q: With CCCCn1nnnc1C(c1ccccc1)N1CCN(Cc2c(F)cccc2Cl)CC1 (stereo unspecified) as the compound, how does the Potency read?
A: Its Potency is inconclusive [inhibitor, single point].

Q: Which “activity change, negative = growth inhibition” value does the source give for CCOC(=O)c1c[nH]n(-c2ccccc2)c1=O here?
A: The value was inactive: -27.8%.

Q: For CCCc1nnc(NC(=O)CCS(=O)(=O)Cc2ccccc2)s1, which activity change, negative = growth inhibition is on record?
A: Its activity change, negative = growth inhibition is inconclusive: -30.9% [inhibitor].

Q: Which Potency does the source give for Cc1ccc(CN2C(=O)C(=O)c3cc(C)ccc32)cc1 here?
A: Its Potency is active: 0.651 µM.

Q: For COc1ccc(-n2c(O)c(/C=N/NS(=O)(=O)c3cccc([N+](=O)[O-])c3)c3ccccc3c2=O)cc1OC, which Potency is on record?
A: Its Potency is active: 18.4 µM.

Q: For CCC(C)(C)C1CCc2[nH]nc(C(=O)NCCN3CCOCC3)c2C1 (stereo unspecified), which Potency is on record?
A: The Potency was inconclusive [inhibitor, single point].

Q: For C/C(=N\NC(=O)c1c(C)nc2ccccn12)c1ccc(O)cc1O, which Potency is on record?
A: Its Potency is active: 3.66 µM.

Q: With O=C(CON=C1c2ccccc2-c2ccccc21)NC12CC3CC(CC(C3)C1)C2 as the compound, how does the Potency read?
A: The Potency was inconclusive [inhibitor, partial curve, poor fit].

Q: For Cc1ccc2oc(C(=O)NCC(c3ccco3)N(C)C)c(C)c2c1 (stereo unspecified), which Potency is on record?
A: The Potency was active: 4.11 µM.

Q: For CCN1CCN(c2cc(C)c3cc(NC(=O)c4cc(OC)c(OC)c(OC)c4)ccc3n2)CC1, which Potency is on record?
A: The Potency was inconclusive [inhibitor, single point].

Q: For CC1Cc2nc(SCC(=O)N3CCCc4ccccc43)n(C)c(=O)c2S1 (stereo unspecified), which Potency is on record?
A: Its Potency is active: 13 µM.

Q: Which Potency does the source give for NC(Cc1ccc(C(F)(F)F)cc1)c1csc(NC(=O)NCCc2ccccc2)n1 (stereo unspecified) here?
A: Its Potency is active: 13 µM.

Q: Which Potency does the source give for O=C(COc1ccccc1Cl)N1CCCCCCC1 here?
A: Its Potency is inconclusive [inhibitor, single point].

Q: Which Potency does the source give for Oc1c(Br)cc(Br)cc1/C=N/c1nc2c(s1)CCCC2 here?
A: Its Potency is active: 16.4 µM.

Q: For CN(Cc1ccccc1)c1nc2c(c(=O)[nH]c(=O)n2C)n1Cc1ccccc1F, which Potency is on record?
A: The Potency was inconclusive [inhibitor, single point].

Q: For COc1ccc(CCC(=O)NCCCNC(=O)CCc2ccc(OC)cc2)cc1, which Potency is on record?
A: The Potency was inconclusive [inhibitor, partial curve, poor fit].

Q: With COc1cccc(-c2nc(S(=O)(=O)c3ccc(C)cc3)c(NCc3ccccc3)o2)c1 as the compound, how does the Potency read?
A: The Potency was active: 18.4 µM.

Q: With COc1ccc(N2C(=O)CS(=O)(=O)C23C(=O)N(Cc2ccccc2)c2ccccc23)cc1 (stereo unspecified) as the compound, how does the Potency read?
A: Its Potency is inconclusive [inhibitor, partial curve, poor fit].

Q: With Nc1nc(O)c(Sc2ccccc2[N+](=O)[O-])c(=O)[nH]1 as the compound, how does the “activity change, negative = growth inhibition” value read?
A: Its value is inactive: -3.99%.
